Assay results reported in the RNAGym collection of RNA variant scans (doi:10.7554/elife.90254).
The source gives no read counts; variants with many changes may rest on few reads.

B1: LINE1-mini (parent)
chain: GGCAGAGCUCAACACAGCGUGGCAAAGUGGCUGUGGCUAGACUGCC

Variants of: B1
Assay: self-cleavage, relative activity (ratio to wild type); higher = more cleavage; in vitro, sequencing; the parent is a self-cleaving ribozyme

Variant | self-cleavage
C15A U34C G40U | 0.03
A24C C31U A41G | 0.09
G5C A12C G17C U28C | 0.02
C13U G29U C31U C46G | 0.06
G5C C13A C23G G33U | 0.02
A25U A26C C45U | 0.81
G2C C15A C23U | 0.02
A25G U28C C37U | 0.05
G7U C18U C31U A41U | 0.02
C18U U32C G40A | 0.04
U9G C15A C45G | 0.15
A39C G44U C45A | 0.03
A4U A6C C15U C42G | 0.07
C13U C18A C37U A41U | 0.09
G22U C23U G36C | 0.07
A25G C31A C42G | 0.14
G7A U20A G35A | 0.15
C3U A11U A12C C15G C46U | 0.02
A26C G36A C37U U38G | 0.02
A4C A11U G40A | 0.02
G1U A14G A16C G17C | 0
G17C G22A A24U A39G | 0.15
G7U G21C C42A | 0.12
U20A A25G G29U A41G | 0.2

Variant | self-cleavage
C8U A14U G22A | 0.07
A6U C15A C37U G40U | 0
G2U C3U G5U C18G | 0.05
A12G U20C U34G | 0.04
G2A C13A A24G G40A | 0.36
C3U A16U U28G C42A | 0.05
C10A C15A G27C U28C | 0.01
C10A C15G C42A | 0.03
G1A G5U C31U G36A G40U | 0.01
C23U A24C G30A C31U G35C C42G C46U | 0.01
G5U A6G G7A A12U C23U G27A G29C | 0.03
C3G G17A G22U C46A | 0.14
G7A G22A A25C A26U | 0.27
A4C A14U G21U A41U | 0.02
A26G G29U G30A U32A G33A U38C A39G | 0.02
C10G C15A U20C G33U U43A | 0.02
C8U C18A G22C G35A C37A | 0.07
U9G C23A G35A C37A | 0.18
C13A C23A G33U U43A | 0.07
A24C G30C G33U | 0.14
A26C G33C U34C | 0.02
G2U A4U G5U A39G | 0.07
G22U A24G U28C U32A | 0.07
A4C A14U C46A | 0.28

Variant | self-cleavage
C10U G29C G33C | 0.06
C8G G33U C45G C46U | 0.08
C3A G7U G19A G40U G44A | 0.12
G1A C10U C23A | 0.51
G19C A24C G35U A39G | 0.03
C10U A25G C37A | 0.01
C31A A39G C42A | 0.02
C3A G17C U28A G36U | 0.06
G2U C31G A41C | 0.02
G21C C42G G44U | 0.03
G2U C10U C18G U20G | 0
A4C A26U U34A | 0.1
G5A A25C U34A A39U | 0.03
C3G G17U G22U | 0.17
C10G U28A C31U | 0.01
C8U A12G G35U | 0.03
C8A C10A C45U | 0
G2C G5C G29U G30A C37G | 0.03
C13U G22U G35U | 0.23
C8U C15G U20C G21U U28C | 0.01
C10G A12G G33U G35A | 0.01
G5A C13G G27U U38G | 0.04
C10U A11U G19U U28A | 0.08
A6G G35U A41U C46U | 0.02

Variant | self-cleavage
A11U C15A C18G | 0.04
C23G U28A C31U A41U U43C | 0.04
G2U C8G A11G | 0
C18U G29U U38G G40A A41G U43A | 0
C8U A12C A14U G21U U28A | 0.01
G7U G22C C31A | 0.04
G2U G7A G27U G33U | 0.04
C8A A12G G19C | 0.05
G19C A25U C31U A41U U43G C46U | 0.05
C23A A24C C37U | 0.08
G2C G29U C45U | 0.1
A6G C18G A41U | 0.04
G19A G22A A41C | 0.01
G1C A24G G29U G33A | 0.02
G5A G35U G44U C46A | 0.07
A14G C15G G36U | 0.01
G5U G33U C42G C46G | 0.07
U9C U20C G29A | 0.03
C15A G19U G35C | 0.08
U9C G19U G35U | 0.04
A4C A25G U32C | 0.06
C23G A41U C42A | 0.13
G7U C31A G33C C45A | 0.01
G22U C31U G36A | 0.23

Variant | self-cleavage
A11G G21C U28A G36C C42A | 0
G1U G2C G30A C31A | 0.02
G35U A39U A41U C46A | 0.1
C13G G33A G35A | 0.17
G17C G27U G29A C42U C46A | 0.02
G19C U20C G21A A25U C37A U38C A39U | 0.02
U9C A14G G29A | 0.05
G1U A11U A12U C15G | 0.01
C10U A25C G30C C46A | 0.06
C10A A12U G21A G29C | 0.02
A11U U32C G36C | 0.04
A6C C10A A14G C15U G29U G35U | 0.03
C3A G17A A24G | 0.21
A4C A12U A39C | 0.06
G2A G21C A39U | 0.43
G29C U32G C37G | 0.02
G21C C31U C46G | 0.08
A6G A26C U34G | 0.01
A6U G22A U43A | 0.09
G7C C10G G30U | 0.03
C15A U20A G27U A39U | 0.01
A12U C18G G44C | 0.04
G19U C37U A41U | 0.04
C13U C23U C42U C46A | 0.01

Variant | self-cleavage
G1C A4C A6U C10A A16U G22C G27U G30C A41U | 0.01
G7U C10G U38A | 0
A16C C42A C45U | 0.15
G1U A14G U32G U34C G36A C37U | 0.02
G5A A11G C15G A26U | 0.01
A25U G27U A39U | 0.73
C10U G27C C37G | 0
G1C C13U G21U | 0.08
G1A G30A U38C | 1.56
C18G G44C C46U | 0.01
G2U C15A A16U U28G C45U | 0.01
C15A G19U G30A G33A | 0.04
C15G G36C C37U | 0.07
G1C G2C U9A A16G | 0.05
C13A G22U U43A | 0.09
A4G A12U C42G | 0.01
G30A U34G A41U | 0.05
C13A G21U G29A G36C | 0.1
G1C U20A A24U G35A | 0.03
C3A G7C A11C A16G G44U C45G C46G | 0.02
G1C A24G C42A | 0.02
G2U A11G C18G A24G G33C G35U | 0
U20C G29A G35U A39C G44U | 0.02
G21A G35C U38C G40U | 0.08

Variant | self-cleavage
G2A A39C G40U G44U | 0.09
G1U C8G C15A | 0.05
U9C A11U A25U | 0.01
G7A U28G G30C U43A | 0.02
C3U A4C A12U C18G G44C C45A | 0.02
G1A G5U G7C G29A | 0.3
A12U A24G A39G | 0.03
A14G G17U G35A G36U | 0.05
C8U A11U C23A | 0.01
A16G G17C G36A | 0.25
G2U C10U C15U G17C G44A C45U C46G | 0.01
G17U C18A A39U | 0.11
G5A C23G C46A | 0.35
G2C A16G U34A U43A | 0.01
C13A G30A U38G G44A | 0.05
A16G C23U U38A G44U | 0.01
G27U U32G U34A | 0.04
A11G A14U A16G U34A | 0.02
C8U G33C C37A | 0.02
A16G G22U G35C C46G | 0
C3A U9G A14U G21A | 0.5
G1C C13A C31U U32G | 0.02
C8G C18G U38C | 0.01
